# Assay results taken from PubChem BioAssay AID1745853 (National Center for Advancing Translational Sciences (NCATS), 2022).
# The list shows a part of the results. The main result of the screen is listed elsewhere. These columns were measured beside it and carry no call.
# Columns and labels:
# Assay in all cases: Primary Screen for Target Class Profiling of Small Molecule Inhibitors of Methyltransferases
# [1] = molecular target: Glycine N-methyltransferase (Homo sapiens) (UniProt Q14749); conditions: purified enzyme, MTase-Glo SAH luminescence; measured here: GNMT inhibition; at 40 µM; stronger effect = lower value
# Text: (§1) PI: Matthew D. Hall Ph.D. and Quinlin M. Hanson Ph.D.
# (§2) National Center for Advancing Translational Sciences (NCATS)
# (§3) National Institute of Health (NIH), Rockville, MD
# (§4) Target class profiling (TCP) is a chemical biology approach amenable to investigating understudied biological targets. TCP is achieved by developing a generalizable assay platform and applying it to screen a curated set of compound libraries against representative members of a target class. Small molecule methyltransferases (SMMTase) are a subclass of methyltransferase that act on metabolites to modulate signaling pathways, metabolize xenobiotics, or balance the available methyl pool. We screened four curated libraries totaling 27,574 unique compounds against the SMMTases nicotinamide N-methyltransferase (NNMT), phenylethanolamine N-methyltransferase (PNMT), histamine N-methyltransferase (HNMT), glycine N-methyltransferase (GNMT), catechol O-methyltransferase (COMT), and guanidinoacetate N-methyltransferase (GAMT). The data generated by this TCP can be leveraged for informed tool molecule development. For example, in the associated publication we identified a chemotype of HNMT-selective inhibitors. Additionally, we identified a putative SMMTase-selective inhibitor with potential as a tool molecule for studying broader methyltransferase biology.
# (§5) High-through put screening assays were developed at the National Center for Advancing Translational Science (NCATS) for the enzymes NNMT, PNMT, HNMT, GNMT, COMT, and GAMT. Enzymatic activity was measured as a function of SAM cofactor conversion using the MTase Glo kit (Promega) for all enzymes. All assays were performed in 1536-well format with substrates and SAM concentrations at KM values. Enzyme concentration and assay timing were optimized for 10-20% SAM conversion. Initial screening of 27,574 compounds was done as single-point assays using the highest compound concentration (40 uM). […] These compounds were replated in 11-point dose response and assayed against NNMT, PNMT, HNMT, GNMT, COMT, GAMT, and a counter-assay. The IC50 and efficacy (maximal response) values were determined for each dose-response curve. These values are also accounted for in the area under the curve (AUC) values.
# (§6) PROTOCOL TABLE (as described by Inglese J, Shamu CE and Guy RK. 2007)
# (§7) SEQUENCE No. (e.g., 1, 2, 3, etc.); […] (e.g., Cells, Incubation, Reagent, etc.); VALUE; DESCRIPTION.
# (§8) 1; Reagent; 2 uL; SMMTase Enzyme (2x) in reaction buffer, columns 1- 48.
# (§9) 2; Reagent; 1 uL; SAM (4x) in reaction buffer, columns 1-48.
# (§10) 3; Controls; 23 nL; DMSO in column 4; sinefungin in DMSO (0 uM - 40 uM) in 7-point 1:2 dilution series (n = 2) in column 2.
# (§11) 4; Compounds; 23 nL; Columns 5-48.
# (§12) 5; Reagent; 1 uL; Substrate (4x) in reaction buffer, columns 2-48.
# (§13) 6; Time; 20-30 min; Incubation.
# (§14) 7; Reagent; 1 uL; MTase-Glo reagent (5X), columns 1-48.
# (§15) 8; Time; 30 min; Incubation.
# (§16) 9; Reagent; 5 uL; MTase-Glo Detection reagent, columns 1-48.
# (§17) 10; Time; 30 min; Incubation, luminescence evolution.
# (§18) 11; Detection; Luminescence; ViewLux uHTS Microplate Imager (PerkinElmer).
# (§19) NOTES (numbers refer to Sequence numbers above)
# (§20) 1, 2, 5. White Medium Binding Greiner 1536-well plates (Cat #789175-F, Greiner Bio-One, Monroe, NC); Reaction buffer: 50 mM Tris, pH 8.0, 3 mM MgCl2, 1 mM EDTA, 50 mM NaCl, 1 mM DTT, and 0.1 mg/mL BSA. Evaporation was prevented by covering assay plates with metal lids containing holes to allow gas diffusion.
# (§21) 1. Six SMMTase were profiled: HNMT, GNMT, PNMT, COMT, NNMT, GAMT
# (§22) 5. The corresponding substrate was used for each enzyme: HNMT - 5.3 uM Histamine; GNMT - >500 uM Glycine; PNMT - 16.2 uM Norephinephrine; COMT - 13.7 uM Norephinephrine; NNMT - 3.8 uM Nicotinamide; GAMT - 2.5 uM Guanidinoacetate.6, 8, 10. Room temperature
# (§23) 6. Final reaction conditions: 10 nM COMT, 5 uM SAM, 15 uM norepinephrine, 50 mM Tris, pH 8.0, 3 mM MgCl2, 1 mM EDTA, 50 mM NaCl, 1 mM DTT, and 0.1 mg/mL BSA; refer to tables 2 and S1 for specific timing.
# 8. […]
# [2] = molecular target: Guanidinoacetate N-methyltransferase (Homo sapiens) (UniProt Q14353); conditions: purified enzyme, MTase-Glo SAH luminescence; measured here: GAMT inhibition; at 40 µM; stronger effect = lower value
# Text: as §1, §2, §3, §4, §5, §6, §7, §8, §9, §10, §11, §12, §13, §14, §15, §16, §17, §18, §19, §20, §21, §22, §23
# 8. […]
# [3] = molecular target: Histamine N-methyltransferase (Homo sapiens) (UniProt P50135); conditions: purified enzyme, MTase-Glo SAH luminescence; measured here: HNMT inhibition; at 40 µM; stronger effect = lower value
# Text: as §1, §2, §3, §4, §5, §6, §7, §8, §9, §10, §11, §12, §13, §14, §15, §16, §17, §18, §19, §20, §21, §22, §23
# 8. […]
# [4] = molecular target: Nicotinamide N-methyltransferase (Homo sapiens) (UniProt P40261); conditions: purified enzyme, MTase-Glo SAH luminescence; measured here: NNMT inhibition; at 40 µM; stronger effect = lower value
# Text: as §1, §2, §3, §4, §5, §6, §7, §8, §9, §10, §11, §12, §13, §14, §15, §16, §17, §18, §19, §20, §21, §22, §23
# 8. […]
# [5] = molecular target: Phenylethanolamine N-methyltransferase (Homo sapiens) (UniProt P11086); conditions: purified enzyme, MTase-Glo SAH luminescence; measured here: PNMT inhibition; at 40 µM; stronger effect = lower value
# Text: as §1, §2, §3, §4, §5, §6, §7, §8, §9, §10, §11, §12, §13, §14, §15, §16, §17, §18, §19, §20, §21, §22, §23
# 8. […]
# % is scaled to controls: 0 for no effect and ±100 for the full control effect.
SMILES,"activity change, negative = inhibition [1]","activity change, negative = inhibition [2]","activity change, negative = inhibition [3]","activity change, negative = inhibition [4]","activity change, negative = inhibition [5]"
CCNC(=O)c1c(C)oc2c1CN(Cc1ccc(Br)o1)CC2,-9.03%,-9.04%,-4.22%,-13.5%,-18.7%
Cc1ccc(NC(=O)N2Cc3c(sc4c3CCCC4)-n3cccc3C2c2cccc(F)c2)cc1 (stereo not given),1.6%,1.68%,9.27%,8.52%,8.32%
CCc1cnc(C2CCN(C(=O)OC(C)(C)C)CC2)[nH]1,-5.43%,-10.3%,-7.51%,-19.1%,-2.53%
CCN1CCN(C(=O)CCC2CCN(S(=O)(=O)c3ccccc3)CC2)CC1,-3.86%,-6.37%,-3.85%,-11.5%,-9.9%
COc1cccc(C(=O)N2CCC3(CC2)CCN(CCc2ccccc2)c2ccccc2O3)c1,-0.341%,-0.848%,-0.65%,-5.89%,-2.41%
OC[C@@]1(O)CO[C@H](OC[C@H]2O[C@@H](OCCc3ccccc3)[C@H](O)[C@@H](O)[C@@H]2O)[C@@H]1O,4.93%,4.5%,10%,-7.47%,1.12%
Cc1cccc(N2CCN(CCCNC(=O)CCc3nnc4n(CC(C)C)c(=O)c5ccccc5n34)CC2C)c1 (stereo not given),-4.35%,1.81%,5.31%,14%,2.88%
Cc1ccc(N2C(=O)c3cc(-c4ccco4)nn3CC2(C)C(=O)NC2CCCCCC2)c(C)c1 (stereo not given),0.309%,4.49%,3.07%,-0.211%,-0.543%
CC(C(=O)NCc1ccccc1)n1ccc2cc(S(=O)(=O)N3CCCC3)ccc21 (stereo not given),9.91%,2.44%,6.29%,10.8%,5.76%
CCCN1C(=O)c2c(C(=O)NCCC3=CCCCC3)ncn2CC1(C)C(=O)NCc1ccc(OC)cc1 (stereo not given),-2.68%,0%,1.01%,-0.346%,4.84%
CCC1c2ccc(C)n2CCN1C(=O)Nc1ccc(C)cc1C (stereo not given),-7.34%,4.27%,-4.49%,-4.73%,-4.53%
Cc1cc2c(cc1S(=O)(=O)N1CCN(c3cccc(C)c3C)CC1)n(C)c(=O)n2C,1.9%,-0.632%,-1.85%,-6.38%,-3.91%
CC(C)CC(NC(=O)c1ccc(=O)[nH]c1)c1nnc2n1CCNCC2 (stereo not given),-2%,1.04%,0.527%,0.014%,2.95%
C[C@@H]1O[C@@H](O[C@H]2[C@H](O[C@H]3[C@H](O[C@H]4CC[C@@]5(C)C(CC[C@]6(C)C5CC=C5[C@@H]7CC(C)(C)C[C@@H](O)[C@]7(C)CC[C@]56C)[C@@]4(C)CO)O[C@H](C(=O)O)[C@@H](O)[C@@H]3O)O[C@H](C(=O)O)[C@H](O)[C@@H]2O)[C@H](O)[C@H](O)[C@H]1O (stereo not given in full),0%,10%,9.6%,-6.71%,1.01%
COc1ccc(-c2cc3n(n2)CC(C)(C(=O)NCc2ccccc2)N(Cc2ccc(SC)cc2)C3=O)cc1 (stereo not given),5.56%,0.696%,7.47%,3.94%,1.42%
O=C(Cn1nc2n(Cc3ccc(F)cc3)c(=O)c3ccccc3n2c1=O)Nc1ccc(F)cc1F,-3.51%,-0.295%,3.83%,-7.8%,-3.84%
COCCn1c(C)cnc1CCNS(=O)(=O)c1c(C)noc1C,-2.75%,-2.36%,0.302%,-4.26%,-7.21%
CC(NC1CCC2(CCNCC2)CC1)c1nc(-c2ccccn2)no1 (stereo not given),-2.97%,-0.015%,-5.67%,-5.12%,-0.47%
CCc1cccc(NC(=O)Cn2nc3n(C(C)C)c(=O)c4ccc(C(=O)NC5CCCC5)cc4n3c2=O)c1,4.03%,0%,6.6%,3.71%,2.89%
CC1(C(=O)NC2CCCCC2)Cn2nc(-c3cccs3)cc2C(=O)N1c1ccc(F)cc1F (stereo not given),-2.07%,3.98%,3.27%,4.84%,-2.47%
C=C1[C@H](OC(C)=O)[C@H]2[C@@H](OC(=O)c3ccccc3)[C@@H](C)C[C@]2(O)[C@@H](OC(C)=O)[C@H](C)/C=C/C(C)(C)C(=O)[C@H](OC(C)=O)[C@H]1OC(C)=O,2.47%,2.87%,8.64%,-10.4%,3.91%
COc1ccc(CCNC(=O)c2cc3n(n2)CC(C)(C(=O)NCCC(C)C)N(C)C3=O)cc1OC (stereo not given),2.4%,0.51%,9.42%,8.4%,5.2%
CNC(=O)c1cccn2nccc12,-5.09%,-6.69%,-2.25%,-20.6%,11.1%
CC1=NS(=O)(=O)c2cc(Cl)ccc2N1,5.73%,-1.54%,9.07%,-7.14%,-1.71%
CN1C(=O)c2cc(C(=O)NCCC3=CCCCC3)nn2CC1(C)C(=O)NCc1ccccc1 (stereo not given),-2.98%,-5.32%,4.07%,-2.15%,-1.92%
COc1ccc(C(=O)N[C@H](Cc2ccccn2)C2CC(O)C2)cc1F (stereo not given in full),0.944%,0.412%,2.1%,-1.41%,8.93%
C=CC(=O)Nc1cccc(Sc2nc(Nc3ccc(N4CCN(C)CC4)cc3)ncc2Cl)c1,-38.5%,12.8%,-13.3%,-29.1%,4.94%
